Assay results reported in article PMC4041426, “Structural basis for binding the TREX2 complex to nuclear pores, GAL1 localisation and mRNA export” (Nucleic Acids Research, 2014).
Results are given in words; binding and its absence hold for the method and conditions named. For part of these data: In cells and extracts the contact can be indirect. Some results given as binding are weak or reduced against the parent protein; the word gives no strength. For part of these data: Tags and fused reporters may be left off the sequences shown.

Sequences of proteins named here, by UniProt entry; tags and fusion partners are left off. Residues count along the entry.
UniProt P20676, residues 191-385: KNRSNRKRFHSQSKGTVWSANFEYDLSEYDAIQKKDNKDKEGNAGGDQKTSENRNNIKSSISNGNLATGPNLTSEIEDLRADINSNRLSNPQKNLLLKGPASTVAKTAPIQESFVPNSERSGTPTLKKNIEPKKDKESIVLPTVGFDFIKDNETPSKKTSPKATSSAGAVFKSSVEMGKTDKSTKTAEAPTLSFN

T1: Sac3^723–805 (wild-type) (S. cerevisiae) (UniProt P46674)
T1 sequence: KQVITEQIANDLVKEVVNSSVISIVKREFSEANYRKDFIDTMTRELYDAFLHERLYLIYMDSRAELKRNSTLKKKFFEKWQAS

T2: GST-Sac3^753–805 wild-type (WT) (S. cerevisiae) (UniProt P46674)
T2 sequence: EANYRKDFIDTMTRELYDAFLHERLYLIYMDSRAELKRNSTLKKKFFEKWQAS


Tests used:
[1] = biological target: T1, Sac3^723–805 (wild-type) (S. cerevisiae); assay: co-purification (SDS-PAGE of the purified complexes); cells with co-expressed Sac3^723–805:Cdc31 mixed with cells with Sus1 in excess; complex purified and compared by SDS-PAGE
[2] = biological target: T2, GST-Sac3^753–805 wild-type (WT) (S. cerevisiae); assay: pull-down; clarified lysate with co-expressed GST-Sac3^753–805 and Cdc31 mixed with clarified lysate with Sus1, Glutathione Sepharose 4B, 4°C, 1 h; wash 50 mM Tris-HCl pH 8.0, 200 mM NaCl, 1 mM DTT; SDS-PAGE and Coomassie staining
GST-Nup1^191–385 = biological target: T3, GST-Nup1^191–385 (S. cerevisiae, UniProt P20676 191-385); assay: pull-down; GST-Nup fusion (or GST) immobilised on Glutathione Sepharose 4B from clarified bacterial lysate and washed with PBS-DTT; purified Sac3^CID complex, sub-complex, mutant variant or Kap95 added at 15.4 μM; 4°C, 1 h; SDS-PAGE and Coomassie staining; both purified
T3 construct: source: E. coli BL21 (DE3) CodonPlus RIL; immobilised on Glutathione Sepharose 4B from clarified lysate; not shown: GST, N-terminal, kept

binding [1] | binding [2] | binding (GST-Nup1^191–385) | Binder
binds | binds |  | Cdc31 (protein, UniProt P06704 1-161) MSKNRSSLQSGPLNSELLEEQKQEIYEAFSLFDMNNDGFLDYHELKVAMKALGFELPKREILDLIDEYDSEGRHLMKYDDFYIVMGEKILKRDPLDEIKRAFQLFDDDHTGKISIKNLRRVAKELGETLTDEELRAMIEEFDLDGDGEINENEFIAICTDS
 |  | no binding (tested: 15.4 μM) | Sac3^787–805 sub-complex with Cdc31 (complex, UniProt P46674 787-805; P06704 1-161) chain 1: ELKRNSTLKKKFFEKWQAS chain 2: MSKNRSSLQSGPLNSELLEEQKQEIYEAFSLFDMNNDGFLDYHELKVAMKALGFELPKREILDLIDEYDSEGRHLMKYDDFYIVMGEKILKRDPLDEIKRAFQLFDDDHTGKISIKNLRRVAKELGETLTDEELRAMIEEFDLDGDGEINENEFIAICTDS
binds | binds |  | Sus1 (protein, UniProt Q6WNK7 1-96) MTMDTAQLKSQIQQYLVESGNYELISNELKARLLQEGWVDKVKDLTKSEMNINESTNFTQILSTVEPKALEMVSDSTRETVLKQIREFLEEIVDTQ
 |  | no binding (tested: 15.4 μM) | Sac3^723–753 sub-complex with Sus1A (complex, UniProt P46674 723-753; Q6WNK7 1-96) chain 1: KQVITEQIANDLVKEVVNSSVISIVKREFSE chain 2: MTMDTAQLKSQIQQYLVESGNYELISNELKARLLQEGWVDKVKDLTKSEMNINESTNFTQILSTVEPKALEMVSDSTRETVLKQIREFLEEIVDTQ
